{
  "source": "PubChem BioAssay (Tox21)",
  "note": "“And” between values parts separate entries of the source, which are not always exact repeats. Identical values can stand only once. Inconclusive results, whose numbers are uncertain, are shown with a selection of clear calls. Potencies of inconclusive entries are doubtful fits and often do not repeat. More than one record can exist for a structure, and the calls need not agree. The source made the active and inactive calls. Calls come from the whole dose curve; as a rule, active = well fitted cell-killing curve with a large enough effect in the repeat runs (not every such curve was filed as active); inconclusive = weak or mixed curves, or effect the other way; inactive = no such curve, though single readings can be large or run the other way. % is set by controls: 0 for no effect and ±100 for the full control effect; potency is the fitted concentration of half-maximal effect; tags give direction and shape of the fitted curve.",
  "data": [
    {"assay": "qHTS assay to identify small molecule antagonists of the estrogen related receptor signaling pathway with the pleiotropic PPARgamma coactivator (PGC) from Tox21 10K library - cell viability counter screen (AID 1224840); note: nearly all actives have a fitted effect of over 40% in size", "settings": "PGC/ERR reporter cells viability, CellTiter-Fluor, 17.5 h; series mostly up to 92.4 µM; viability change, negative = cytotoxic: at the top concentration", "description": "National Center for Advancing Translational Sciences [NCATS]\nNIH Chemical Genomics Center [NCGC]\nU.S. Environmental Protection Agency [EPA]\nNational Institutes of Environmental Health Sciences [NIEHS]\nNational Toxicology Program [NTP]\nU.S. Food and Drug Administration [FDA]\nEstrogen related receptors (ERRs), the first orphan nuclear receptors discovered, play an important role in the control of cellular energy metabolism. ERRs are required for high-energy production in response to the environmental challenges. The pleiotropic PPARgamma coactivator (PGC) is a major partner of ERR and a key regulator in energy homeostasis. Together they have been implicated in the etiology of metabolic disorders such as Type 2 diabetes and metabolic syndrome. ERR-alpha was also identified as an adverse marker for breast cancer progression; ERR-alpha-positive tumors have a poor prognosis. To screen and to identify environmental compounds that perturb the ERR and PGC/ERR signaling pathways could provide valuable information for potential therapeutic or preventive measures in the treatment of metabolic disease. To differentiate true PGC/ERR antagonists or agonist from cytotoxic substances, the assay is multiplexed with cell viability assay.\nTox21 Assay Protocol Summary:\nThe PGC/ERR cells were dispensed at 2,000 cells/5 ul/well in 1536-well white plates using a Multidrop dispenser. After the assay plates were incubated at a 37 C/5% CO2 incubator for 6 hours, 23 nL of compounds dissolved in DMSO, positive and negative controls or DMSO only was transferred to the assay plate by a pin tool. The plates were incubated at 37 C for 17.5 hours. 1 ul/well of CellTiter-Fluor reagent was added into the assay plates using a Flying Reagent Dispenser. After 30-minute incubation at 37 C/5% CO2, the fluorescence intensity in the plates was measured using a ViewLux plate reader.", "values": [
      {"smiles": "CCCC(=O)OC[C@@H](OC(=O)CCC)[C@@H](OC(=O)CCC)[C@H](Cn1c2nc(=O)[nH]c(=O)c-2nc2cc(C)c(C)cc21)OC(=O)CCC", "Potency": "inconclusive: 29.8 µM [rising, partial curve]"},
      {"smiles": "Oc1ccc(Cl)cc1Sc1cc(Cl)ccc1O", "Potency": "inconclusive: 30.6 µM [cytotoxic, partial curve] and inconclusive: 26.6 µM [cytotoxic, single point]"},
      {"smiles": "Cc1cc(C(C)(C)C)c(O)c(C)c1Cn1c(=O)n(Cc2c(C)cc(C(C)(C)C)c(O)c2C)c(=O)n(Cc2c(C)cc(C(C)(C)C)c(O)c2C)c1=O", "viability change, negative = cytotoxic": "inactive: -1.97%"},
      {"smiles": "O=Cc1c2ccccc2c(Cl)c2ccccc12", "Potency": "inconclusive: 21.2 µM [cytotoxic, partial curve]"},
      {"smiles": "C[C@]12CC[C@H]3[C@@H](CCC4=CC(=O)CC[C@@]43C)[C@@H]1CC[C@@H]2C(=O)CO", "Potency": "inconclusive: 68.6 µM [cytotoxic]"},
      {"smiles": "CN(C)c1ccc(/C=C/c2ccc([N+](=O)[O-])cc2)cc1", "Potency": "inconclusive: 0.778 µM [rising, full curve, poor fit]"},
      {"smiles": "CCOC(=O)c1nc(C(Cl)(Cl)Cl)n(-c2ccc(Cl)cc2Cl)n1", "Potency": "inconclusive: 61.1 µM [cytotoxic, single point]"},
      {"smiles": "CO[C@H]1C=CO[C@@]2(C)Oc3c(C)c(O)c4c(O)c(c(/C=N/N5CCN(C)CC5)c(O)c4c3C2=O)NC(=O)/C(C)=C\\C=C[C@H](C)[C@H](O)[C@@H](C)[C@@H](O)[C@@H](C)[C@H](OC(C)=O)[C@@H]1C", "Potency": "inconclusive: 17.4 µM [cytotoxic, partial curve] and inconclusive: 21.1 µM [cytotoxic, partial curve, poor fit]"},
      {"smiles": "CC(C)(C)c1cc(O)c(C(C)(C)C)cc1O", "Potency": "inconclusive: 48.6 µM [cytotoxic, partial curve]"},
      {"smiles": "COc1ccc(-c2nc3ccc(C4=NNC(=O)CC4C)cc3[nH]2)cc1", "note": "(stereo not given)", "Potency": "inconclusive: 18.8 µM [cytotoxic]"},
      {"smiles": "O=S(=O)(c1cccc2cnccc12)N1CCCNCC1", "viability change, negative = cytotoxic": "inactive: 14.9% [at 42.5 µM]"},
      {"smiles": "O=[N+]([O-])c1cc(Cl)c(Cl)c(Cl)c1Cl", "Potency": "inconclusive: 60.9 µM [cytotoxic]"},
      {"smiles": "O=c1[nH]nc(-c2ccc([N+](=O)[O-])o2)o1", "Potency": "inconclusive: 30.6 µM [cytotoxic, partial curve]"},
      {"smiles": "CCCCCCCC/C=C\\CCCCCCCC(=O)N(C)CC(=O)O", "Potency": "inconclusive: 68.6 µM [cytotoxic, single point]"},
      {"smiles": "Cc1ccc(O)c(O)c1", "Potency": "inconclusive: 52.9 µM [cytotoxic, partial curve]"},
      {"smiles": "CC(NCCC(c1ccccc1)c1ccccc1)c1ccccc1", "note": "(stereo not given)", "Potency": "inconclusive: 42.2 µM [cytotoxic, partial curve, poor fit]"},
      {"smiles": "C1COC1", "viability change, negative = cytotoxic": "inactive: 2.66%"},
      {"smiles": "O=Cc1cc(O)ccc1Br", "viability change, negative = cytotoxic": "inactive: 5.47%"},
      {"smiles": "COC(=O)[C@@H](N)Cc1ccc(O)c(O)c1", "viability change, negative = cytotoxic": "inactive: -4.9% [at 42.5 µM]"},
      {"smiles": "COc1cc(S(N)(=O)=O)cc(C(=O)O)c1OC", "viability change, negative = cytotoxic": "inactive: 4.32% [at 42.5 µM]"},
      {"smiles": "O=[N+]([O-])c1ccccc1CCO", "viability change, negative = cytotoxic": "inactive: -1.6%"},
      {"smiles": "CCCCCCCCCCCC[N+](C)(C)Cc1ccccc1", "Potency": "active: 60 µM and active: 41.9 µM and inconclusive: 1.33 µM [cytotoxic, full curve, poor fit]"},
      {"smiles": "CCN(CC)CCNc1ccc(CO)c2sc3ccccc3c(=O)c12", "Potency": "inconclusive: 18.8 µM [cytotoxic, partial curve]"},
      {"smiles": "O=c1c(O)c(-c2ccc(O)c(O)c2)oc2cc(O)cc(O)c12", "Potency": "inconclusive: 21.7 µM [cytotoxic, partial curve]"},
      {"smiles": "CCCC(C(=O)OCCN(CC)CC)(c1ccccc1)c1ccccc1", "Potency": "inconclusive: 29.8 µM [cytotoxic]"},
      {"smiles": "OCCCCCCO", "viability change, negative = cytotoxic": "inactive: 0.785%"},
      {"smiles": "Cc1cc2c(cc1C(F)(F)F)N(C(=O)Nc1ccc(Oc3cccnc3C)nc1)CC2", "Potency": "inconclusive: 27.7 µM [cytotoxic, partial curve]"},
      {"smiles": "CCO[C@@H]1O[C@H](C(COCc2ccccc2)OCc2ccccc2)[C@H](OCc2ccccc2)[C@H]1O", "note": "(stereo not given in full)", "Potency": "inconclusive: 33.5 µM [cytotoxic, single point]"},
      {"smiles": "O=Cc1ccccc1C=O", "Potency": "inconclusive: 54.5 µM [cytotoxic, partial curve]"},
      {"smiles": "O=C(O)c1cc(N=Nc2ccc([N+](=O)[O-])cc2)ccc1O", "Potency": "inconclusive: 60 µM [cytotoxic, partial curve]"},
      {"smiles": "O[C@@H](c1cc(C(F)(F)F)nc2c(C(F)(F)F)cccc12)[C@H]1CCCCN1", "Potency": "inconclusive: 33.5 µM [cytotoxic, partial curve, poor fit]"},
      {"smiles": "Cc1ccc(N)cc1S(=O)(=O)O", "viability change, negative = cytotoxic": "inactive: -4.73%"},
      {"smiles": "C/C=C/C(=O)CCCC", "viability change, negative = cytotoxic": "inactive: -2.5%"},
      {"smiles": "CCCCCCCCCCCCCC[N+](C)(C)Cc1ccccc1", "Potency": "active: 62.1 µM"},
      {"smiles": "CNCc1cc(F)ccc1Oc1ccc(Cl)c(Cl)c1", "Potency": "inconclusive: 68.6 µM [cytotoxic, single point]"},
      {"smiles": "Nc1ccc2cc3ccc(N)cc3nc2c1", "Potency": "inconclusive: 34.4 µM [rising, partial curve] and inconclusive: 26.6 µM [rising, partial curve]"},
      {"smiles": "O=[N+]([O-])c1ccc(O/N=C/c2cc(Br)c(O)c(Br)c2)c([N+](=O)[O-])c1", "Potency": "active: 48.3 µM"},
      {"smiles": "Nc1nnc(-c2ccc([N+](=O)[O-])o2)o1", "Potency": "inconclusive: 48.6 µM [cytotoxic, partial curve]"},
      {"smiles": "O=C(Cl)c1cc(C(=O)Cl)cc(C(=O)Cl)c1", "viability change, negative = cytotoxic": "inactive: -7.91%"},
      {"smiles": "CN(C)[C@@H](CCOc1cccc2ccccc12)c1ccccc1", "Potency": "inconclusive: 33.5 µM [cytotoxic, single point]"}
    ]}
  ]
}
